About 14,000 (4.5%) of roughly 310,000 compounds showed an effect of 50% or more. The effect is printed as a negative number. The list shows a part of the results.
Each compound was assayed against human ether-à-go-go-related gene (hERG) potassium channel (human, UniProt Q12809) (assay: primary screen, population patch clamp on CHO cells stably expressing hERG).
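Further: peak tail current of the secondary pulse compared with the same well before compound.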

Chain of human ether-à-go-go-related gene (hERG) potassium channel (Q12809 whole entry, looked up): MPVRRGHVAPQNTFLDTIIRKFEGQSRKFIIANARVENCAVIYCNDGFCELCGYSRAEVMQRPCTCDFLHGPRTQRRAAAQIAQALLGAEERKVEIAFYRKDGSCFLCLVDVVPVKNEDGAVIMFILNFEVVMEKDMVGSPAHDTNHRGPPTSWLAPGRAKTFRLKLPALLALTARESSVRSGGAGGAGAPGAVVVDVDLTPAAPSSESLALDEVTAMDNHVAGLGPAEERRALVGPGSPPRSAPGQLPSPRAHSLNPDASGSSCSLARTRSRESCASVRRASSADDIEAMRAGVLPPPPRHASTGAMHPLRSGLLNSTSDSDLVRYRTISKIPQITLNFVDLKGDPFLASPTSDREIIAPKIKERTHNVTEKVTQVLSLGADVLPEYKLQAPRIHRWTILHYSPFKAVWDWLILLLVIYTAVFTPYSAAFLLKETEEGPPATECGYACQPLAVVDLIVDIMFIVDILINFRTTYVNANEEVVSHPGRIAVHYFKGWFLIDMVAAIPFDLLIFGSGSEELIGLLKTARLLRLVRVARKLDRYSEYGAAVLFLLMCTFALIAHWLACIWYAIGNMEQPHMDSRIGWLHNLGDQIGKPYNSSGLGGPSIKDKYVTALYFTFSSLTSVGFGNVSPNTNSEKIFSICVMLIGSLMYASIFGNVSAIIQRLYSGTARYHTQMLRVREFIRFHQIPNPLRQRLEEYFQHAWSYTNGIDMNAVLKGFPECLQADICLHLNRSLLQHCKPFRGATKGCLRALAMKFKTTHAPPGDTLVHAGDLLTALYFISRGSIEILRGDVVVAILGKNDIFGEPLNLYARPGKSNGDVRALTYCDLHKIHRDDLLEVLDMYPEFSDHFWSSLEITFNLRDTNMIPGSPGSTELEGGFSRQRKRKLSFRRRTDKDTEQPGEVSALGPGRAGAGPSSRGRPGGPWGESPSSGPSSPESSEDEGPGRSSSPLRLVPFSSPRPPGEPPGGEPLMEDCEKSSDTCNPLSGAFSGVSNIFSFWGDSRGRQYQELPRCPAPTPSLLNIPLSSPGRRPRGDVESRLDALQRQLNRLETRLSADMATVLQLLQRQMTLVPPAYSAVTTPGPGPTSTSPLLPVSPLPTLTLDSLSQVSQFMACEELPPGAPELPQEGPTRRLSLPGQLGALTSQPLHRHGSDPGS

First: COC(=O)C1Sc2[nH]c(=O)sc2C(c2ccc(Cl)cc2)C1C(=O)OC (stereo not shown)
Second: Cc1cnc(NC(=O)CCNC(=O)c2ccc([N+](=O)[O-])cc2)s1
The “hERG current change (%, negative = inhibition) at 10uM” value of the first is lower: -67% for the first, 12.8% for the second.

Compared with Cc1cc([N+](=O)[O-])nn1CC(=O)N1N=C(C(F)F)CC1(O)C(F)F (stereo not shown), CCOC(=O)N1CCN(C(=O)CSc2ccc(-c3cccnc3)nn2)CC1 is higher in “hERG current change (%, negative = inhibition) at 10uM” value: 14.7% for the first, 16.1% for the second.

Going from CC12COC3(C(N)=O)CC1CCC32C (stereo not shown) to CC1(C)Cc2c(sc(NC(=O)c3ccc4c(c3)OCCO4)c2C(N)=O)C(C)(C)N1, the “hERG current change (%, negative = inhibition) at 10uM” value falls from 7.45% to 2.61%.

Going from CC(C)c1ccc(C2C3=C(CC(C)(C)CC3=O)NC3=C2C(=O)c2ccccc23)cc1 (stereo not shown) to O=C(CCCN1C(=O)c2ccccc2C1=O)Nc1ccc(S(=O)(=O)N2CCCCC2)cc1, the “hERG current change (%, negative = inhibition) at 10uM” value falls from 5.08% to -28.8%.

First: Cc1ccnc(N2CCC(C(=O)Nc3ccc4c(c3)CCC4)CC2)n1
Second: Cc1ccc(Cl)cc1N1CCN(C(=O)COc2ccc3c(c2)CCC3)CC1
The “hERG current change (%, negative = inhibition) at 10uM” value of the first is lower: 16.1% for the first, 17.2% for the second.

Going from COc1ccc(/C=C/c2ccccc2)cc1[C@H]1[C@H]2C=CC[C@@H](C)[C@@H]2C(=O)N1Cc1ccccc1 to O=C(Nc1ccc([N+](=O)[O-])cc1)C1C(c2ccccc2)=C1c1ccccc1, the “hERG current change (%, negative = inhibition) at 10uM” value falls from 17.3% to -14.8%.

Compared with Cc1ccccc1N1CCN(C2CCCN(C(=O)c3ccsc3)C2)CC1 (stereo not shown), Cc1ccc(NC2CCCN(C(=O)CCN3CCCCO3)C2)cc1C (stereo not shown) is higher in “hERG current change (%, negative = inhibition) at 10uM” value: -47.3% for the first, 2.4% for the second.

Compared with Cc1ccc(NC(=O)CN(C)C(=O)c2cccc(S(=O)(=O)N3CCc4ccccc43)c2)cc1, Cc1ccc(C)c(S(=O)(=O)N2CCN(C(=O)CNC(=O)c3ccc4ccccc4c3)CC2)c1 is lower in “hERG current change (%, negative = inhibition) at 10uM” value: -15.6% for the first, -28.1% for the second.

Going from COc1ccc2[nH]cc(C(=O)CCl)c2c1 to O=C(O)COc1ccc2oc3c(c2c1)CCCC3, the “hERG current change (%, negative = inhibition) at 10uM” value falls from 8.92% to 5.66%.

Compared with COc1ccc(-n2nc3c(N4CCC(C(=O)N5CCCCCC5)CC4)nnc(C)c3c2C)cc1, Cc1ccc2nc(N3CCC(C(=O)N4CCC5(CC4)OCCO5)CC3)sc2c1 is higher in “hERG current change (%, negative = inhibition) at 10uM” value: -53.7% for the first, -19.8% for the second.

Going from COc1ccc(Cl)cc1NC(=S)NCCO to COc1ccccc1COC(=O)Nc1c(C)nn(C)c1Cl, the “hERG current change (%, negative = inhibition) at 10uM” value falls from 8.54% to 1.05%.

Compared with COCCNC(=O)c1cc(S(=O)(=O)N2CCOCC2)ccc1SCc1cccc(OC)c1OC, COc1cccc(CSCC(=O)NCCc2ccccc2)c1OC is higher in “hERG current change (%, negative = inhibition) at 10uM” value: -18.6% for the first, 6.55% for the second.

Compared with O=C1C2(CCCC13COC(c1ccc(O)cc1)OC3)COC(c1ccc(O)cc1)OC2 (stereo not shown), CN(CC(=O)Nc1cccc(F)c1)C(=O)c1ccc(C2SCCS2)cc1 is lower in “hERG current change (%, negative = inhibition) at 10uM” value: 23.3% for the first, 9.92% for the second.

Compared with Cc1ccccc1Nc1c(-c2ccc(N3CCOCC3)cc2)nc2cnccn12, Cl.O=C(c1ccccc1)c1coc2ccc(O)c(CN3CCOCC3)c12 is lower in “hERG current change (%, negative = inhibition) at 10uM” value: -1.1% for the first, -60.7% for the second.

First: COc1ccc(N2CCN(CCS(=O)(=O)c3cc(Cl)ccc3Cl)CC2)cc1
Second: Nc1nc(SCC(=O)N2CCN(S(=O)(=O)c3ccc(Cl)cc3)CC2)n[nH]1
The “hERG current change (%, negative = inhibition) at 10uM” value of the first is lower: -41.4% for the first, 25.9% for the second.

Going from CSc1nc(C)cc(/C=C\c2ccccc2)c1C#N to O=c1[nH]c(CSc2nnc(Nc3ccccc3)s2)nc2ccccc12, the “hERG current change (%, negative = inhibition) at 10uM” value falls from 5.12% to 3.98%.

Compared with Cc1cc(NC(=O)C2CCCCC2C(=O)O)ccc1NC(=O)c1ccccc1 (stereo not shown), CC(=O)Nc1cccc(NC(=O)CCc2ccccc2)c1 is higher in “hERG current change (%, negative = inhibition) at 10uM” value: -5.66% for the first, 9.06% for the second.

Going from COc1nc(Oc2ccc(C(=O)OCC(N)=O)cc2)nc(N(C)C)n1 to COc1ccc(C(=O)NCC(=O)OCC(=O)NCCC2=CCCCC2)cc1, the “hERG current change (%, negative = inhibition) at 10uM” value falls from 8.74% to -12.7%.

Compared with Cn1c(=O)[nH]c(=O)c2c1nc(NCCO)n2CCOc1ccccc1, CC(=O)c1cc(-c2ccccc2)n(CC(=O)Nc2cc(C)cc(C)c2)c1C is higher in “hERG current change (%, negative = inhibition) at 10uM” value: 17.3% for the first, 36.8% for the second.

First: CC(=O)NC(Cc1c[nH]c2ccccc12)C(=O)OCC(=O)Nc1ccc2c(c1)OCO2 (stereo not shown)
Second: CC1CC(=O)N(CC(=O)Nc2ccc3c(c2)OCO3)c2ccccc2S1 (stereo not shown)
The “hERG current change (%, negative = inhibition) at 10uM” value of the first is higher: 5.39% for the first, -21.7% for the second.

Compared with CC(C)(C)c1ccc(/C=N/NC(=O)C[n+]2ccccc2)cc1.[Cl-], COc1ccc(/C=N/NC(=O)CSc2nnc(CCCc3ccc(OC)c(C)c3)o2)cc1 is lower in “hERG current change (%, negative = inhibition) at 10uM” value: 26% for the first, 9.25% for the second.

Compared with CC1(C)OC(=O)C(=CNCCc2ccc(O)cc2)C(=O)O1, Cc1ccc(CCNC(=O)C2CCCN(S(C)(=O)=O)C2)cc1 (stereo not shown) is lower in “hERG current change (%, negative = inhibition) at 10uM” value: 29.5% for the first, 9.65% for the second.

Going from CN1C(CC(O)c2ccccc2)CCCC1CC(O)c1ccccc1.Cl (stereo not shown) to O=C(Nc1cccc(F)c1)N1CCCC(CNS(=O)(=O)Cc2ccccc2)C1 (stereo not shown), the “hERG current change (%, negative = inhibition) at 10uM” value rises from -67.8% to -23.9%.

First: O=C(c1cccnc1NCc1ccc(F)cc1)N1CCOCC1
Second: O=C(NC1CCCCCC1)c1cc(-c2ccccn2)nc2ccccc12
The “hERG current change (%, negative = inhibition) at 10uM” value of the first is higher: 3.95% for the first, -14.2% for the second.

First: O=C(O)CCCn1c(O)c(C=C2N=c3ccccc3=N2)sc1=S
Second: N#Cc1c(NC(=O)C2CC(c3ccccc3Cl)=NO2)sc2c1CCC2 (stereo not shown)
The “hERG current change (%, negative = inhibition) at 10uM” value of the first is lower: 18.3% for the first, 20.1% for the second.

Compared with CCCCN(C)S(=O)(=O)c1ccc(C(=O)N=c2sc3cc(NC(C)=O)ccc3n2C)cc1, CC(=O)Nc1ccc(OS(=O)(=O)c2c(C)cc(C)cc2C)cc1 is lower in “hERG current change (%, negative = inhibition) at 10uM” value: 13.2% for the first, -6.62% for the second.

First: CC1SCC(=O)N(CC(=O)Nc2ccc3c(c2)OCO3)C1=O (stereo not shown)
Second: Cc1noc(C)c1S(=O)(=O)Nc1ccccc1OC(F)(F)F
The “hERG current change (%, negative = inhibition) at 10uM” value of the first is higher: 12.4% for the first, -15.6% for the second.

COc1cc(OC)c(OC)cc1/C=N/NC(=S)NCC1CCCO1 (stereo not shown) was tested, and the “hERG current change (%, negative = inhibition) at 10uM” value was 3.77%.

Reference: article PMC4336329 (PLoS ONE, 2015)
